The values that follow come from paper PMC5360572 (EBioMedicine, 2017).

Assay in all cases: SPR; BIAcore 3000, 25 °C; PD-L1-Ig or PD-L2-Ig immobilized on CM5 chip by amine coupling; soluble monomeric PD-1 or mutants (0.01–100 μM) injected at 20 μl/min; equilibrium Kd, 1:1 Langmuir model
Common to all, as to settings: both partners purified
(In general: SPR reads the build-up and loss of mass on a sensor chip optically.)

Assay [1] deals with T1, human PD-L2 Ig fusion protein (human, UniProt Q9BQ51 20-220).
T1 construct: characterized by SEC prior to use; also called huPD-L2; B7-DC; source: bought: R&D Systems
T1 sequence (looked up): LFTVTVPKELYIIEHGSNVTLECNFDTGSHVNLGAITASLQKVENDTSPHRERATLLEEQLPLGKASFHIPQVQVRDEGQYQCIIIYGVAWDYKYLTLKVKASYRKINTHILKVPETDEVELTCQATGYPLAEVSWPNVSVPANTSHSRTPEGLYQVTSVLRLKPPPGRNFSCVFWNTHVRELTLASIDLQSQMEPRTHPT

Assay [2] addresses T2, mouse PD-L2 Ig fusion protein (mouse, UniProt Q9WUL5 20-221).
T2 construct: mouse PD-L2 part of a bought Ig fusion protein; also called mPD-L2; murine PD-L2-Ig; source: bought: R&D Systems
T2 sequence (looked up): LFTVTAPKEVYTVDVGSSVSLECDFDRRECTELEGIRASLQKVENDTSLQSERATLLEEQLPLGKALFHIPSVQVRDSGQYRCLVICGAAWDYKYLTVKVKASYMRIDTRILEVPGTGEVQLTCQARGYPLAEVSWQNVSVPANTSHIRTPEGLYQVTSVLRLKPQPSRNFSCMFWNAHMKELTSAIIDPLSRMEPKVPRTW

Assay [3] concerns the target T3, mouse PD-L1 Ig fusion protein (mouse, UniProt Q9EP73 partial chain).
T3 construct: mouse PD-L1 part of a bought Ig fusion protein; also called mPD-L1; murine PD-L1-Ig; source: bought: R&D Systems
T3 sequence (Q9EP73 19-239): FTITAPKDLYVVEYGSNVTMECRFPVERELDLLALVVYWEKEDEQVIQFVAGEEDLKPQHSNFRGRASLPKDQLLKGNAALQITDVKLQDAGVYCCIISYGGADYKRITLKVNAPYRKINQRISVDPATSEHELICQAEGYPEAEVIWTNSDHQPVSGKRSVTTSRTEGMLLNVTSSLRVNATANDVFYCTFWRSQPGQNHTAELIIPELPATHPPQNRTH

B1: human PD-1 A132L mutant extracellular IgV domain (soluble, monomeric) (domain or fragment)
chain: not shown
notes: numbering relative to the initiator methionine; crystal structure of this mutant alone deposited as PDB 3RRQ; also called huA132L; HA PD-1
In general, Kd refers to the constant that tells how readily two partners part at equilibrium. For B1, the Kd in assay [1] was found to be 6.5 nM; in assay [2], 29 nM; in assay [3] it was 230 nM.
